# Measured values as given in US20230381336A1 (SHANGHAI MIRACOGEN, published 2023).
# T1: human Claudin 18.2 (human, UniProt P56856-2 1-261)
# T1 sequence (looked up): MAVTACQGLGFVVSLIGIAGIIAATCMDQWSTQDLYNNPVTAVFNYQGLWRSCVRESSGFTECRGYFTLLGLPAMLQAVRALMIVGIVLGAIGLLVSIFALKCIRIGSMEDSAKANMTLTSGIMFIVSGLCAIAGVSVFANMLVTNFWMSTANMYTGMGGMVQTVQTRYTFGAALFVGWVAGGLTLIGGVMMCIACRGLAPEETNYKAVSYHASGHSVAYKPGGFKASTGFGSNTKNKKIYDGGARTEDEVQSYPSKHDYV
# B1: CM311-18D10-VH6/VL1-ADC (other)
# heavy: QVQLQESGPGLVKPSETLSLTCTVSGGSISSNYAWNWIRQPPGKGLEWIGYIYYSGNTNYNPSLKSRVTISRDTSKNQFSLKLSSVTAADTAVYYCATSYYGNSFIYWGQGTLVTVSSASTKGPSVFPLAPSSKSTSGGTAALGCLVKDYFPEPVTVSWNSGALTSGVHTFPAVLQSSGLYSLSSVVTVPSSSLGTQTYICNVNHKPSNTKVDKRV[human IgG1 Fc skipped]
# light: DIVMTQSPDSLAVSLGERATINCKSSQSLLNSGNQKNYLTWYQQKPGQPPKLLIYWASTRESGVPDRFSGSGSGTDFTLTISSLQAEDVAVYYCQNAYSFPWTFGQGTKVEIKRTVAAPSVFIFPPSDEQLKSGTASVVCLLNNFYPREAKVQWKVDNALQSGNSQESVTEQDSKDSTYSLSSTLTLSKADYEKHKVYACEVTHQGLSSPVTKSFNRGEC
# modifications: MC-vc-PAB-MMAE coupled to free cysteine thiols of the DTT-reduced antibody; average DAR 3.8 per antibody; sites not stated
# Experiments:
# human Claudin 18.2 [1] = biological target: T1, human Claudin 18.2; experiment: cell-based or functional assay
# human Claudin 18.2 [2] = biological target: T1, human Claudin 18.2; experiment: cell-based or functional assay; remark: listed apart in the source
binder,measurement,setting,value
B1,"Mean IC50 of cell killing, LT-1C8 cells (KATO stable cell line, medium Claudin 18.2 expression), 96 h, CCK-8 or Presto-Blue",human Claudin 18.2 [1],0.254 µg/mL
same,"Mean IC50 of cell killing, LT-M11 cells (KATO stable cell line, high Claudin 18.2 expression), 96 h, CCK-8 or Presto-Blue",human Claudin 18.2 [1],0.114 µg/mL
same,"Mean IC50 of cell killing, row without a cell line label printed under LT-M11 (taken as a second LT-M11 series)",human Claudin 18.2 [1],0.0511 µg/mL
same,"EC50 of cell killing on KATO III cells, 96 h, PrestoBlue, 4-parameter fit",human Claudin 18.2 [2],0.0164 µg/mL
